Test results published in PubChem BioAssay AID504332 (National Center for Advancing Translational Sciences (NCATS), 2011).
The whole screen tested about 350,000 compounds, of which about 31,000 (8.9%) were called active. The shares of active, inactive and inconclusive entries below differ from those in the screen. The call rests on the fitted dose curve; in most records, active means well fitted inhibition curve with a large enough effect; inconclusive means small, poorly fitted or top-dose-only effect; inactive means no such curve, though single readings can be large or run the other way. Where the call is inconclusive, the potency comes from a doubtful curve fit.

These compounds were tested against Histone-lysine N-methyltransferase EHMT2 (Homo sapiens) (UniProt Q96KQ7) (assay: qHTS Assay for Inhibitors of Histone Lysine Methyltransferase G9a). Conditions: G9a H3K9 monomethylation, AlphaScreen, 2 h; activity, negative = inhibition: at 59 µM (top of the series) unless noted.
How it was run: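 G9a (20 nM) preincubated 15 min RT with compounds, then 500 nM biotinylated H3K9 peptide and 20 uM SAM added; 2 h RT reaction. Monomethyl-H3K9 product detected by AlphaScreen with anti-H3K9me1 antibody, streptavidin donor and anti-rabbit IgG acceptor beads.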
Further: nearly all actives have a fitted effect of over 75% in size.
On the % scale 0 is the no-effect control and ±100 the full control effect; potency means the concentration at half of the fitted maximal effect; tags describe the fitted curve by direction and shape.

Sequence of UniProt Q96KQ7 (Q96KQ7 whole entry, looked up): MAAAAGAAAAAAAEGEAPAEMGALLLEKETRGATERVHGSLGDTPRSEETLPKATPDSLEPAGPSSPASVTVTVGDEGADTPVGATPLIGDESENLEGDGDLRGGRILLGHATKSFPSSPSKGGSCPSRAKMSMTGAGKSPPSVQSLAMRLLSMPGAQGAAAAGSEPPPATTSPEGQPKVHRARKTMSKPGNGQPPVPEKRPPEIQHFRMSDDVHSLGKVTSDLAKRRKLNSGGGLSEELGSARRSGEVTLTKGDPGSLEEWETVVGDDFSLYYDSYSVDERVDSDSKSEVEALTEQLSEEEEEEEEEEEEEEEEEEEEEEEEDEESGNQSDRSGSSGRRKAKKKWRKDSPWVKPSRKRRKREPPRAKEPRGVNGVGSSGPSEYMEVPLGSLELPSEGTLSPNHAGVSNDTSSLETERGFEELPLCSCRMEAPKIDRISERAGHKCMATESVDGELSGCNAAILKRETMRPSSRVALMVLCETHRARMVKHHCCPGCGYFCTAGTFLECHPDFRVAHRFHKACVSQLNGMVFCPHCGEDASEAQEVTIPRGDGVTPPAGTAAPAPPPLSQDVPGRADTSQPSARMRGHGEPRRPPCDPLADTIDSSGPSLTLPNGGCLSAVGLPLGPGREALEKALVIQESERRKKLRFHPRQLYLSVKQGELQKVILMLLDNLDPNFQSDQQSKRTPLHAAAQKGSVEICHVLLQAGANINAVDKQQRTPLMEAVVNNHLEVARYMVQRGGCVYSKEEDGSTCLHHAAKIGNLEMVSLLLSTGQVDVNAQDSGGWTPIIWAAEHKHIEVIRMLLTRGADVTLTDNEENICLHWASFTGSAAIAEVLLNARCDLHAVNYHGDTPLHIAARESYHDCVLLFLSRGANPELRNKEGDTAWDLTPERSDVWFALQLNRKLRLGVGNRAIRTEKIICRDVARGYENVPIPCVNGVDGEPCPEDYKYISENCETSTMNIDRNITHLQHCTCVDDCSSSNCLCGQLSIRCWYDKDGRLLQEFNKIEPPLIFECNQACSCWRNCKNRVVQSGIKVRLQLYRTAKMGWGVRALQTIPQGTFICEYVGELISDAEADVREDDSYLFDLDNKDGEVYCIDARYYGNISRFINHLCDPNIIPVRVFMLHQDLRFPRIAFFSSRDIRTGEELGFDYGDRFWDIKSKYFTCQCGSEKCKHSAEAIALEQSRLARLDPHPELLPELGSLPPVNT

| SMILES | activity, negative = inhibition | Potency |
| --- | --- | --- |
| CCc1cccc(C)c1NS(=O)(=O)c1ccc(-c2cc(C)no2)s1 | inactive: -1.34% | – |
| CC(=O)c1ccc(S(=O)(=O)N2CCn3cccc3C2C)cc1 (stereo not drawn) | – | inconclusive: 5.01 µM [inhibitor, single point] |
| Cc1cc[n+]2c3c(cccc13)CCC2 | – | inconclusive: 25.1 µM [inhibitor, single point] |
| O=C(O)COc1ccc(OCCNC[C@H](O)COc2ccccc2)cc1 | – | inconclusive: 0.708 µM [inhibitor, full curve] |
| O=C(COC(=O)[C@H](Cc1c[nH]c2ccccc12)NC(=O)c1cccs1)NCc1ccccc1 | – | inconclusive: 7.08 µM [inhibitor, full curve] |
| CCOC(=O)c1cc(-c2ccccc2)n(CCC(=O)NCCc2ccc(OC)c(OC)c2)c1C | – | inconclusive: 15.8 µM [inhibitor, partial curve, poor fit] |
| O=C(O)Cn1c(SCCOc2ccc(Cl)cc2)nc2ccccc21 | – | inconclusive: 100 µM [inhibitor, single point] |
| CCOc1cc(CNc2ccc(Br)cc2)cc(Br)c1OCC(=O)NC(C)(C)C | inactive: 1.04% | – |
| CCOc1ccc(CCNC(=O)Cn2ncn3nc(-c4ccc(OC)cc4)cc3c2=O)cc1OCC | inactive: 15.9% | – |
| Cn1c(=O)n(C)c2cc(N3CCCCC3)c(NC(=O)c3c(F)cccc3F)cc21 | – | inconclusive: 12.6 µM [inhibitor, partial curve] |
| COc1ccc(-c2ccc(SCC(=O)c3cccs3)nn2)cc1OC | – | active: 50.1 µM |
| CN(C)CCCN(Cc1cc2cc3c(cc2[nH]c1=O)OCO3)C(=S)Nc1ccccc1 | inactive: -4.85% [at 102 µM] | – |
| O=C(O)/C(=C\c1ccc(-c2ccc(F)cc2)o1)c1ccccc1 | – | inconclusive: 50.1 µM [inhibitor, partial curve, poor fit] |
| CCN(CCNC(=O)CN(C)S(=O)(=O)c1cccc2nsnc12)c1ccccc1 | – | active: 39.8 µM |
| O=C1/C(=C\c2ccccc2)SC(=S)N1CCC(=O)N1CCCCC1CCO (stereo not drawn) | – | inconclusive: 63.1 µM [inhibitor, single point] |
| COc1ccc(NC2=NCC(=O)N2Cc2cccs2)cc1 | inactive: -17.7% [at 102 µM] | – |
| Cc1ccc(NC(=O)CSc2nnc(COc3ccc(Cl)cc3)o2)c(C)c1 | inactive: -6.05% | – |
| Cc1cc(NC(=O)CSc2nnnn2-c2cc(Cl)ccc2C)no1 | inactive: 15.5% [at 102 µM] | – |
| O=C(NNC(=S)Nc1ccccc1)NNC(=S)Nc1ccccc1 | – | active: 14.1 µM |
| O=C(CSc1nnc(-c2ccccn2)n1-c1ccc(Cl)cc1)Nc1ccc2c(c1)OCO2 | – | active: 14.1 µM |
| CCc1ccc2nc3c(c(C(=O)O)c2c1)CCC3 | – | active: 50.1 µM |
| C=CCn1c(=S)[nH]c2sc3c(c2c1=O)CCC3 | – | active: 3.16 µM |
| CC(=O)c1c(C)nc(-c2ccc(Cl)cc2)nc1N | inactive: -45.6% [at 102 µM] | – |
| COC(=O)c1cc(NC(=O)Cc2cccs2)cc(C(=O)OC)c1 | – | inconclusive: 89.1 µM [inhibitor, single point] |
| CCNc1nc(NCC)nc(C(=O)OCCO)n1 | – | active: 39.8 µM |

| SMILES | activity, negative = inhibition | Potency |
| --- | --- | --- |
| O=C(N/N=C/C1C(c2ccccc2)C1(Cl)Cl)c1cccc(Br)c1 (stereo not drawn) | – | inconclusive: 89.1 µM [inhibitor, partial curve, poor fit] |
| O=C(NCCc1nc2ccccc2[nH]1)C1CCC(=O)N(CCc2cccc(F)c2)C1 (stereo not drawn) | inactive: 52.1% [at 102 µM] | – |
| Nc1nnc(SCCN2C(=O)c3ccccc3S2(=O)=O)s1 | inconclusive: -66.7% [inhibitor] | – |
| Cc1cc(C)cc(NC(=O)CCN2C(=O)c3ccccc3Sc3ncccc32)c1 | – | inconclusive: 31.6 µM [inhibitor, partial curve, poor fit] |
| CCOc1ccc(-c2nc(C#N)c(N3CCOCC3)o2)cc1 | – | inconclusive: 79.4 µM [inhibitor, single point] |
| O=C(CC1C(=O)N(c2ccccc2)C(=O)N1Cc1ccco1)Nc1ccccc1 (stereo not drawn) | – | inconclusive: 44.7 µM [inhibitor, partial curve, poor fit] |
| O=C(N/C(=C/C=C/c1ccccc1)C(=O)N1CCCCC1)c1ccc([N+](=O)[O-])cc1 | – | active: 50.1 µM |
| CCOC(=O)CSc1ncccn1 | – | inconclusive: 89.1 µM [inhibitor, single point] |
| CCOC(=O)c1[nH]c2ccc(C)cc2c1N | – | active: 1.78 µM |
| CC(=O)Nc1ccc(S(=O)(=O)NC(CSc2ccc(C(=O)O)cc2[N+](=O)[O-])C(=O)O)cc1 (stereo not drawn) | – | active: 50.1 µM |
| Cc1c(NC(=O)Nc2cccc(F)c2)c(=O)n(-c2ccccc2)n1C | – | inconclusive: 39.8 µM [inhibitor, partial curve, poor fit] |
| CCOCc1cc(=O)[nH]c(SC)n1 | inactive: 39.9% [at 102 µM] | – |
| COc1ccccc1NC(=O)c1ccc(-c2ccccc2[N+](=O)[O-])o1 | – | inconclusive: 35.5 µM [inhibitor, single point] |
| CSc1ccc(CNC(=O)Cn2ccc3cc(S(=O)(=O)N4CCCC4)ccc32)cc1 | inactive: -17.5% | – |
| O=C1Cn2c(nc3ccccc32)-c2ccccc2N1 | – | inconclusive: 0.708 µM [inhibitor, full curve, poor fit] |
| O=C(CCc1nc(-c2ccccc2Cl)no1)NCC1CCCO1 (stereo not drawn) | inactive: -6.48% [at 102 µM] | – |
| CCN1CCc2c(C#N)c(NCc3ccccc3)nc(N(CC)CC)c2C1 | – | active: 50.1 µM |
| COCCn1c(C)cc(O)c(C(c2ccc(Cl)cc2)N2CCCCC2)c1=O (stereo not drawn) | – | inconclusive: 39.8 µM [inhibitor, single point] |
| COc1ccc(NC(=O)CSc2nccn2Cc2ccccc2)cc1 | – | inconclusive: 79.4 µM [inhibitor, single point] |
| Cc1ccc(C(C)NC(=O)c2ccncc2)c(C)c1 (stereo not drawn) | – | inconclusive: 50.1 µM [inhibitor, partial curve, poor fit] |
| CCCOC(=O)c1cc(-c2ccc(C=O)o2)ccc1Cl | – | inconclusive: 39.8 µM [inhibitor, single point] |
| CC(=O)CCc1ccc(OCCCCn2cncn2)cc1 | – | inconclusive: 70.8 µM [inhibitor, partial curve] |
| Cc1ccc(-c2n[nH]c(=S)n2/N=C/c2sccc2C)cc1 | – | active: 0.631 µM |
| CN(C)CCCNC(=O)/C=C/c1ccc2c(c1)OCO2 | – | inconclusive: 39.8 µM [inhibitor, single point] |
| CCc1ccccc1N(C(C)=O)c1nc(CCl)cs1 | – | inconclusive: 44.7 µM [inhibitor, partial curve, poor fit] |

| SMILES | activity, negative = inhibition | Potency |
| --- | --- | --- |
| Cc1ccc2cc(C(c3nnnn3C3CCCC3)N(Cc3ccco3)Cc3cccs3)c(=O)[nH]c2c1 (stereo not drawn) | – | active: 28.2 µM |
| COc1cc(Cl)c(NS(=O)(=O)c2ccc(-c3coc(C)n3)cc2)c(OC)c1 | inactive: 3.03% | – |
| CC1CCCCN1CCCNC(=O)Cn1ncc2c3ccccc3n(Cc3ccccc3F)c2c1=O (stereo not drawn) | inactive: 7.96% | – |
| CCOCCCNC(=O)Cn1nc(-c2ccccc2)ccc1=O | – | inconclusive: 100 µM [inhibitor, single point] |
| Cc1cc([N+](=O)[O-])nn1CCCC(=O)Nc1cc(Oc2ccc(F)cc2)cc([N+](=O)[O-])c1 | – | inconclusive: 79.4 µM [inhibitor, partial curve, poor fit] |
| O=C(CNC(=O)c1ccc(Cl)c([N+](=O)[O-])c1)OCN1C(=O)c2ccccc2C1=O | – | inconclusive: 56.2 µM [inhibitor, partial curve] |
| COc1ccc(N2CCN(Cc3nc4c(c(=O)n(C)c(=O)n4C)n3Cc3cccc(C)c3)CC2)cc1 | – | inconclusive: 7.08 µM [inhibitor, full curve, poor fit] |
| Cc1ccc(C2=C/C(=C/c3cccnc3)C(=O)O2)c(C)c1 | – | inconclusive: 31.6 µM [inhibitor, single point] |
| CC(=O)NC1=NN(C(C)=O)C(C)(c2ccccc2)S1 (stereo not drawn) | – | inconclusive: 25.1 µM [inhibitor, single point] |
| CCOC(=O)C1C(=O)N(C(=O)c2cncc(Br)c2)CC1c1ccccc1 (stereo not drawn) | – | inconclusive: 17.8 µM [inhibitor, full curve, poor fit] |
| COc1ccc(Cn2c(=S)[nH]c3ccccc3c2=O)cc1 | inactive: 23% [at 102 µM] | – |
| Cc1ccccc1Nc1nnc(SCc2cc(=O)n3ccsc3n2)s1 | – | inconclusive: 25.1 µM [inhibitor, single point] |
| Cc1ccc(/C=N/NC(=O)C2COc3ccccc3O2)s1 (stereo not drawn) | – | inconclusive: 89.1 µM [inhibitor, partial curve, poor fit] |
| COCC(C)NCc1ccccc1C (stereo not drawn) | – | inconclusive: 1.78 µM [inhibitor, partial curve, poor fit] |
| O=C(CSc1nc2ccccc2nc1SCC(=O)N1CCCCC1)N1CCCCC1 | – | inconclusive: 70.8 µM [inhibitor, partial curve, poor fit] |
| COc1cccc(N2CCN(c3ncnc4onc(-c5ccc(Cl)cc5)c34)CC2)c1 | inactive: 9.44% | – |
| C=CCOc1cccc(C(=O)N2CCCC(Nc3ccc4c(c3)OCCO4)C2)c1 (stereo not drawn) | – | inconclusive: 15.8 µM [inhibitor, partial curve, poor fit] |
| CCN(CC)CCN(C(=O)CN1C(=O)CCC1=O)c1nc2cc3c(cc2s1)OCO3 | – | inconclusive: 79.4 µM [inhibitor, single point] |
| O=C(COc1ccccc1[N+](=O)[O-])N/N=C/c1ccc(O)c([N+](=O)[O-])c1 | – | active: 50.1 µM |
| COc1ccc(NC(=O)NC(C)c2c(-n3cccc3)sc3c2CCN(C)C3)c(OC)c1 (stereo not drawn) | – | inconclusive: 25.1 µM [inhibitor, partial curve, poor fit] |
| CN1CCN(c2nc(-c3cccnc3)nc3ccccc23)CC1 | – | inactive |
| Cc1nc2ccccc2c(C)c1C(=O)c1ccccc1 | – | active: 50.1 µM |
| O=C(NCC1CCCO1)c1nc2c(nnn2Cc2ccccc2Cl)c(=O)[nH]1 (stereo not drawn) | – | inconclusive: 22.4 µM [inhibitor, single point] |
